In the supplement of paper PMC11417369:
The list shows a part of the results.

tested on: PfSIP2 AP2 domain 1 (GST-tagged); assay: gcPBM binding intensity (ln(normalized median fluorescence intensity)); higher = stronger DNA binding
How it was run: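 In this array assay, P. falciparum DNA-binding domains with a GST tag, expressed in E. coli, were applied for 1 h to primer-extended double-stranded 36-bp intergenic genomic probes and negative controls on an Agilent 4 × 180k array. Bound protein was visualised with Alexa488 anti-GST antibody at 488 nm. Binding intensity is the highest Masliner-normalised natural-log median intensity across replicate spots of either probe orientation.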

| Sequence | gcPBM binding intensity (ln) |
| --- | --- |
| AAAATATTAAATATGTGTACATATAATAGTTCAATG [XGTACX_site5957] | 7.12 |
| AAACAAATAAAAATATGTACACATTTTTTCATTATG [XGTACX_site5449] | 7.18 |
| TTAAAAGAAAATAGGTGTACACATAATATATACATA [XGTACX_site7697] | 7.11 |
| TGTGTATATATAAATACACACCAAATGTTAATATAT [CACACA_site8501] | 6.93 |
| AACAATTAGAATAACGCATGCATTTATAATATAGAA [TGCATGCA_site595] | 6.74 |
| ACATAGATCATAGGTTGTACGAAGGTATCCTTTATT [XGTACX_site694] | 6.81 |
| TCATATATATATATATGTACATATTTATGTATGTAT [XGTACX_site6291] | 7.29 |
| ACTTTTTGAATGTTTGCACACAAATCTCATAATTTT [CACACA_site358] | 7.43 |
| AAAAGGAGCAAATACAAAAAAATGAACAAAAAAAAA [CACACA_negctrl_site716] | 6.88 |
| TTTTTCTTTGAATAAATACACACGAGAAATGAAAGT [CACACA_site1688] | 7.99 |
| CATACCTATAGACACACACACACACGCACGCACAAA [CACACA_site6374] | 7.54 |
| TTTTGTAATGCTTTTTTTTTTTTTTTTTTTTTTTTT [CACACA_negctrl_site932] | 8.78 |
| AGTATTATTTACTGCGCATGCTATTTATATATATTA [TGCATGCA_site876] | 6.79 |
| AATAGAAATTATATAAACATAAATGAATAAATAAAT [CACACA_negctrl_site1817] | 6.69 |
| ACCATATATTAAAAAGTGCATTAAATATATAAATAT [GTGCAC_site9443] | 9.16 |
| AATTAAATGGATAAATGTACATATGTGAATATATTT [XGTACX_site84] | 6.98 |
| ATTTTATTTAAATACACACACATATATATATTATAT [CACACA_site4607] | 7.28 |
| CACAGACACCCATACACACACATACCCATATATATA [CACACA_site5023] | 7.53 |
| CTACATATGTATAATATGCACACGTCATTTTCCCCT [CACACA_site2107] | 7.24 |

| Sequence | gcPBM binding intensity (ln) |
| --- | --- |
| AATTATCAGGAATGATGTACTGAAATAAAAAAAAAA [XGTACX_site3280] | 6.93 |
| AAAAAAAAAAAAAAAGCACACATCATATTTTAATTC [CACACA_site9109] | 7.44 |
| ACACAAAAATGAAAAATGAAAAGGGTAATATATATA [CACACA_negctrl_site1490] | 7.73 |
| ATACTGTATAGTCGCACACAAAAATATAAAATATTT [CACACA_site6004] | 7.11 |
| TTACACAAGGATAAAAACATATGTATGATTATATAT [CACACA_negctrl_site654] | 6.98 |
| AAAATTTGAAAAAGGGGTACTTAATAAAAGTTTCAT [XGTACX_site932] | 6.99 |
| CATTCTACAATAAAAAGTACATATATATATTATATA [XGTACX_site921] | 7.35 |
| TCAAAAAAAATTTTAGTGCATATTTTAGTCAAAACA | 8.63 |
| ATTTAAATAATATGTACACACATTTAAAAAGTTATA [CACACA_site7347] | 6.94 |
| TAATATTTCGTTAAGTTTTAAAGAAAAAAAAAAAAA [CACACA_negctrl_site1253] | 6.96 |
| AAATTAAATGATAGAGCATGCGCTAAAAATGAGAAA [TGCATGCA_site937] | 6.89 |
| ACACATATAATAGTTACATGCAAAAATACTTTTATT [TGCATGCA_site785] | 6.97 |
| TTTTTATAACATAAAAGTACATATTTTTAATTTAAT [XGTACX_site4394] | 6.78 |
| AAATTAAAAATAATTACACACATAGAAAAGTTATAT [CACACA_site7137] | 7.12 |
| TTTTGCAAATATTACTGTACACAATCTCATATAATT [XGTACX_site2584] | 6.96 |
| TTTTCAGAAAGACATGCATACAAAAATAAAAAAGAT [TGCATGCA_site814] | 7.64 |
| TTATAGTAATAATAATGTACATTTATACACATATAT [XGTACX_site1965] | 7.05 |
| ATATATATATATATAACATGCAAAGTTCAAAAAAAA [TGCATGCA_site943] | 9.22 |
| AAAAAAAACAGACACACACACACATATACATACATA [CACACA_site2665] | 6.96 |

| Sequence | gcPBM binding intensity (ln) |
| --- | --- |
| TTTTTTTTATTATAAATATATATATTATAAAACGAA [XGTACX_negctrl_site189] | 7.46 |
| TTCTTTGTTTTTTTTTTTTTTTTAAAAGATAATATT [XGTACX_negctrl_site381] | 6.99 |
| TTTATTTTTCATTGGGGTACACAAGTTTATTTTTGA [XGTACX_site4262] | 7.39 |
| ATATCGTTTTTAAATTGTACATTCACTATAGAATAA [XGTACX_site6442] | 7.31 |
| ATATATTTATTTTGTGCACACAACGCAAACCTTTTA [CACACA_site3508] | 8.68 |
| ATTTTTTCTTTTCGATGTACCCTTCTTATTCTTTAT [XGTACX_site3782] | 7.06 |
| TATATCGCCTTCAAAAGTACTCATATAAAAAAAAAA [XGTACX_site7123] | 7.13 |
| AAAAAAAAAAAAAAATGTACTTTTATTATTAATATA [XGTACX_site6357] | 7.11 |
| TTTGAACTTTTATATACACACATTATTATAGTATAG [CACACA_site6851] | 7.02 |
| AGTTCATATTTAAAAAGTACATATTTAAAAACTTCT [XGTACX_site4882] | 7.16 |
| ATGCATATATTTATGTGTACATATATTTGTAGGGGG [XGTACX_site6063] | 8.24 |
| AACAAAGAGAAATAAACACACACAAAATAAAGAAAA [CACACA_site8704] | 6.85 |
| ATTAATTAAAATAGTTGTACAATCAAAAAAACAAAA [XGTACX_site7660] | 7.23 |
| TTTTTGTATGCTTCCCGACTACATTATGTCGTAAAT [GTGCAC_negctrl_site164] | 6.98 |
| ATATCGAAAATTTGGTGTACATTTTTATTTGTTCAA [XGTACX_site3094] | 7.19 |
| AGAATATATAAGTATACACACATATATATATATATA [CACACA_site201] | 9.33 |
| GATATTACGTGTTTGGTATTTTTTGATGTTAATAGG [CACACA_negctrl_site105] | 7.25 |
| TATAAAATAATTAAATGTACATAATATATAAAATAT [XGTACX_site6777] | 7.12 |
